PubChem BioAssay AID1508624 (National Center for Advancing Translational Sciences (NCATS), 2021)
The whole screen tested about 48,000 compounds, of which about 120 (0.25%) were called active. Another 4% or so got no clear call; they are omitted. Calls follow the shape of the dose curve; as a rule, active = well fitted activation curve with a large enough effect; inconclusive = small, poorly fitted or top-dose-only effect, or another doubt; inactive = no such curve, though single readings can be large or run the other way. The list shows a part of the results.

Test: Primary qHTS for Identification of Small Molecule Activators of Huntingtin-Antisense Promoter Activity; also: nearly all actives have a fitted effect of over 55% in size
Details: HEK293 HTT-AS promoter firefly luciferase reporter (activity 0% = vehicle and -100% = no light), 24 h; series mostly up to 57.5 µM; activity change, positive = activation: at the top concentration
How it was run: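 Firefly luciferase signal from promoter-reporter HEK293 cells was scaled between vehicle (0%) and zero RLU (-100%). Compounds were tested at final concentrations of up to 57.5 uM over 24 h at 37 degrees C. PTC124 at 50 uM final served as control inhibitor.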

Question: For CCOC(=O)c1ccccc1NC(=O)Cn1c(=O)n(Cc2nc(-c3ccccc3)no2)c(=O)c2ccccc21, which “activity change, positive = activation” value is on record?
Answer: The value was inactive: -10.3%.

Question: With COc1ccccc1N1CCN(C(=O)Cn2ncc3c([nH]c4ccccc43)c2=O)CC1 as the compound, how does the “activity change, positive = activation” value read?
Answer: Its value is inactive: -8.59%.

Question: For COc1ccc(OC)c(S(=O)(=O)N2CCC(c3ccncc3)CC2)c1, which “activity change, positive = activation” value is on record?
Answer: The value was inactive: -30.6%.

Question: For CCOCCCNC(=O)NC(C)c1c(-n2cccc2)sc2c1CCN(CC)C2 (configuration not stated), which “activity change, positive = activation” value is on record?
Answer: The value was inactive: -8.69%.

Question: With COc1ccc(S(=O)(=O)Nc2cccnc2Nc2ccc(O)cc2)cc1 as the compound, how does the “activity change, positive = activation” value read?
Answer: The value was inactive: -37.1%.

Question: Which “activity change, positive = activation” value does the source give for O=C(CCc1nc(CN2CCN(S(=O)(=O)c3ccc(F)cc3)CC2)no1)N1CCCCC1 here?
Answer: Its value is inactive: -8.94%.

Question: With CCc1ccc(-n2c(SCc3ccccc3F)nc3[nH]ncc3c2=O)cc1 as the compound, how does the “activity change, positive = activation” value read?
Answer: The value was inactive: -36.1%.

Question: Which “activity change, positive = activation” value does the source give for O=C(c1ccc2c(c1)N(Cc1ccccc1F)C(=O)c1ccccc1S2(=O)=O)N1CCCCC1 here?
Answer: The value was inactive: -10%.

Question: With COc1cccc(NC(=O)CSC2=Nc3ccccc3N=C(c3ccc(F)cc3)C2)c1 as the compound, how does the “activity change, positive = activation” value read?
Answer: Its value is inactive: -29.9%.

Question: With C[C@]12C[C@H](O)[C@H]3[C@@H](CCC4=CC(=O)CC[C@@]43C)[C@@H]1CC[C@@H]2C(=O)CO as the compound, how does the “activity change, positive = activation” value read?
Answer: Its value is inactive: -14.3%.

Question: Which “activity change, positive = activation” value does the source give for CCc1ccc(C(=O)c2cn(CC(=O)NCCc3ccc(OC)c(OC)c3)c3nc(C)ccc3c2=O)cc1 here?
Answer: Its value is inactive: -21.9%.

Question: For CCOC(=O)C1CCCN(S(=O)(=O)c2ccc3c(c2)CCCN3C(C)=O)C1 (configuration not stated), which “activity change, positive = activation” value is on record?
Answer: Its value is inactive: -33.3%.

Question: With COc1ccc(CCNC(=O)c2cc3c(-c4ccccc4F)nn(C)c3s2)c(OC)c1 as the compound, how does the “activity change, positive = activation” value read?
Answer: Its value is inactive: -30.1%.

Question: Which “activity change, positive = activation” value does the source give for O=C(Nc1ccc(Br)cc1F)c1cc(S(=O)(=O)NCc2ccc(F)cc2)ccc1F here?
Answer: Its value is inactive: -23.9%.

Question: With COc1ccc(NC(=O)c2cc3c(s2)-c2c(C)cccc2OC3)c(OC)c1 as the compound, how does the “activity change, positive = activation” value read?
Answer: The value was inactive: -10.2%.

Question: With CCCCNc1nc(Oc2ccc(=O)[nH]n2)nc(N(C)C)n1 as the compound, how does the “activity change, positive = activation” value read?
Answer: Its value is inactive: 0.776%.

Question: With C=C(C)Cn1c(=O)c2c(nc3n2CCN3c2ccc(CC)cc2)n(C)c1=O as the compound, how does the “activity change, positive = activation” value read?
Answer: Its value is inactive: -0.19%.

Question: With CCc1nn(CC(=O)NCCCN(CC)CC)c(=O)c2cc3sc(C)cc3n12 as the compound, how does the “activity change, positive = activation” value read?
Answer: The value was inactive: 2.92%.

Question: With CSc1ncc(C(=O)Nc2ccccc2C(=O)c2ccccc2)c(C(F)(F)F)n1 as the compound, how does the “activity change, positive = activation” value read?
Answer: Its value is inactive: -29.5%.

Question: Which “activity change, positive = activation” value does the source give for Fc1ccc(-n2cc(-c3ccccc3)c3c(NC4CCCCC4)ncnc32)cc1 here?
Answer: The value was inactive: -22.1%.

Question: For CCOC(=O)c1cccc(NC(=O)c2cc3c(=O)n(Cc4ccccc4)ccc3nc2C)c1, which “activity change, positive = activation” value is on record?
Answer: The value was inactive: -28%.

Question: Which “activity change, positive = activation” value does the source give for CCC(=O)N1CCc2cc(S(=O)(=O)NC(Cc3ccccc3)C(=O)Nc3ccc(C)cc3)ccc21 (configuration not stated) here?
Answer: The value was inactive: 3.18%.

Question: With Cc1ccc(NC(=O)c2sc3nc(-c4cc5ccccc5oc4=O)[nH]c(=O)c3c2C)c(C)c1 as the compound, how does the “activity change, positive = activation” value read?
Answer: Its value is inactive: -0.951%.

Question: With O=C(CC1Sc2ccc(C(F)(F)F)cc2NC1=O)Nc1ccc(Cl)c(C(F)(F)F)c1 (configuration not stated) as the compound, how does the “activity change, positive = activation” value read?
Answer: The value was inactive: -23.4%.

Question: For CCOc1ccc(-n2c(SCc3ccc(C(=O)OC)o3)nc3c([nH]c4ccccc43)c2=O)cc1, which “activity change, positive = activation” value is on record?
Answer: The value was inactive: -21.8%.

Question: With CCOc1ccc(-c2cc(OC(=O)c3ccc(F)cc3)c3c(C)oc(C)c3c(=O)c2)cc1 as the compound, how does the “activity change, positive = activation” value read?
Answer: Its value is inactive: -25.3%.

Question: For COc1cc(C(=O)Nc2cc(C)ccc2OCc2cc(=O)n3c(C)csc3n2)cc(OC)c1OC, which “activity change, positive = activation” value is on record?
Answer: Its value is inactive: -1.68%.

Question: For CCN1C(=O)c2ccccc2Sc2ccc(NC(C)=O)cc21, which “activity change, positive = activation” value is on record?
Answer: The value was inactive: -0.139%.

Question: Which “activity change, positive = activation” value does the source give for CC1=C(C(=O)OC2CCCCCC2)C(c2c(F)cccc2Cl)CC(=O)N1 (configuration not stated) here?
Answer: Its value is inactive: -46%.

Question: Which “activity change, positive = activation” value does the source give for CCN(CCCNC(=O)c1c(C)oc2ncn(CC(C)C)c(=O)c12)Cc1ccccc1 here?
Answer: The value was inactive: 3.55%.

Question: Which “activity change, positive = activation” value does the source give for COc1ccc(N(Cc2cccs2)C(=O)COc2cccc(Cl)c2)cc1 here?
Answer: Its value is inactive: -32.7%.

Question: With Cn1c(=O)n(-c2ccc(F)c(Cl)c2)c(=O)c2sc3ccccc3c21 as the compound, how does the “activity change, positive = activation” value read?
Answer: Its value is inactive: -13.1%.

Question: Which “activity change, positive = activation” value does the source give for O=C1CC2(CCCC2)CC(=O)N1 here?
Answer: The value was inactive: -0.0864%.

Question: For CCOC(=O)c1c(Nc2ccc(C)cc2)nnc(-c2ccccc2)c1-c1ccccc1, which “activity change, positive = activation” value is on record?
Answer: Its value is inactive: -36.3%.

Question: Which “activity change, positive = activation” value does the source give for COc1ccc(NCc2cc3cc4c(cc3n(CC(=O)Nc3ccc(F)cc3F)c2=O)OCO4)cc1 here?
Answer: Its value is inactive: -26.5%.

Question: Which “activity change, positive = activation” value does the source give for CCc1ccccc1NS(=O)(=O)c1ccc(OC)c2ncccc12 here?
Answer: Its value is inactive: -33.5%.

Question: With CCC1CCCCN1C(=O)c1ccc2c(c1)N(Cc1cccc(Cl)c1)C(=O)c1ccccc1S2(=O)=O (configuration not stated) as the compound, how does the “activity change, positive = activation” value read?
Answer: Its value is inactive: -33.6%.

Question: For CCN(CC)c1ccc(C(=C2C=CC(=[N+](CC)CC)C=C2)c2cc(S(=O)(=O)O)ccc2S(=O)(=O)[O-])cc1, which “activity change, positive = activation” value is on record?
Answer: The value was inactive: -55.8%.

Question: For CCOC(=O)c1cnc2c(Cl)cccc2c1NCCN1CCOCC1, which “activity change, positive = activation” value is on record?
Answer: Its value is inactive: -9.2%.

Question: With COC(=O)CCSc1nc2sc3c(c2c(=O)n1Cc1ccccc1)CCC(C(C)(C)C)C3 (configuration not stated) as the compound, how does the “activity change, positive = activation” value read?
Answer: Its value is inactive: -4.93%.

Question: For Cc1ccc(-n2ncc3c(NCCCN4CCOCC4)ncnc32)cc1, which “activity change, positive = activation” value is on record?
Answer: The value was inactive: 5.44%.

Question: With O=C(CCC1N=C2c3ccccc3N=C(SCc3ccccc3F)N2C1=O)NC1CCCCC1 (configuration not stated) as the compound, how does the “activity change, positive = activation” value read?
Answer: Its value is inactive: -43.9%.

Question: With COc1cccc(-n2c(=O)c3c(C)c(C(=O)N(C)C)sc3n(Cc3ccc(F)cc3Cl)c2=O)c1 as the compound, how does the “activity change, positive = activation” value read?
Answer: The value was inactive: 0.666%.

Question: With CCn1c2ccccc2c2nnc(N3CCN(c4cc(C)ccc4C)CC3)nc21 as the compound, how does the “activity change, positive = activation” value read?
Answer: Its value is inactive: -1.51%.

Question: Which “activity change, positive = activation” value does the source give for Fc1ccc(-c2nc(Nc3cccc(Cl)c3)nc3c2COc2ccccc2-3)cc1 here?
Answer: The value was inactive: -31.4%.

Question: Which “activity change, positive = activation” value does the source give for O=C(O)c1ccc2c(c1)nc(Nc1cccc(Cl)c1)c1ccncc12 here?
Answer: Its value is inactive: -11.3%.

Question: With COc1ccc(N2CCN(S(=O)(=O)c3ccc4c(c3)CC(C)N4C(C)=O)CC2)cc1 (configuration not stated) as the compound, how does the “activity change, positive = activation” value read?
Answer: The value was inactive: -94.3%.
